# The other results are listed elsewhere or left out. Cleavage of a single-stranded DNA pool by Rep nickase domains was read by sequencing for 1 h at 37 °C with 3 µM enzyme; only the middle of the 90-letter strands is printed. Values are log2 of uncut reads against the no-enzyme pool; the lower, the more was cut; hits are not called. Counts are relative to all reads; uncut strands gain when others are lost, and binding without cutting may add a little.
# Tests used:
# Experiment in all cases: uncleaved DNA left, log2 of reads against the no-enzyme library (log2 ratio); higher = less cleavage (more negative = more Rep cleavage of the k-mer); sequences stand for … in CTCGTCCG…ACCGGAGA
# [1] = test system: T1, Rep nickase domain of Muscovy duck circovirus
# T1 sequence (Rep 1-111, printed without the tag): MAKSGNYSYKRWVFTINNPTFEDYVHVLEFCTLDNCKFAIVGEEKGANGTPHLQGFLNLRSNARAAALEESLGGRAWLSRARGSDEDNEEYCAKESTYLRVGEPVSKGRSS
# Description: (§1)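 A pool of 90-nt single-stranded DNAs with seven random bases just before the constant AC of the nick site (name = the seven bases) was cut by 3 µM recombinant His6-SUMO-tagged Rep nickase domain (300 nM DNA, 50 mM HEPES pH 8.0, 50 mM NaCl, 1 mM MnCl2, 1 h, 37 °C, three replicates). Uncut DNA was amplified and sequenced.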
# [2] = test system: T2, Rep nickase domain of banana bunchy top virus
# T2 sequence (Rep 1-94, printed without the tag): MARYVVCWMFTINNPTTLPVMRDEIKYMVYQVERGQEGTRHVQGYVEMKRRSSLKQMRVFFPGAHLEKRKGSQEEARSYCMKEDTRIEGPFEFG
# Description: as §1
# [3] = test system: T3, Rep nickase domain of cabbage leaf curl virus
# T3 sequence (Rep 1-116, printed without the tag): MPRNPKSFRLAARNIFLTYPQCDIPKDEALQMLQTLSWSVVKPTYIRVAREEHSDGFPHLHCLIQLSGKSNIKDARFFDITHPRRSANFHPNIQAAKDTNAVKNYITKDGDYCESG
# Description: as §1
# [4] = test system: T4, Rep nickase domain of chickpea chlorotic dwarf virus
# T4 sequence (Rep 1-124, printed without the tag): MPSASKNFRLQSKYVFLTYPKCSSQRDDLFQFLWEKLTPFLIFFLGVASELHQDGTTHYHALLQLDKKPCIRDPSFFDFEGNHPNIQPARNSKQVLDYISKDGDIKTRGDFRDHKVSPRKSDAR
# Description: as §1
# [5] = test system: T5, Rep nickase domain of faba bean necrotic yellows virus
# T5 sequence (Rep 1-98, printed without the tag): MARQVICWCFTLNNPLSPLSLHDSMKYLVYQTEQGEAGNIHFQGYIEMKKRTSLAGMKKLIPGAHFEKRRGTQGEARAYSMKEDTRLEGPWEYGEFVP
# Description: as §1
# [6] = test system: T6, Rep nickase domain of maize striate mosaic virus
# T6 sequence (Rep 1-117, printed without the tag): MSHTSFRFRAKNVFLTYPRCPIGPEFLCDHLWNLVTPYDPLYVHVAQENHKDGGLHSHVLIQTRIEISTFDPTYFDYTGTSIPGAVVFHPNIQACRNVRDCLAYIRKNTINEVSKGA
# Description: as §1
# [7] = test system: T7, Rep nickase domain of porcine circovirus 2
# T7 sequence (Rep 2-116, printed without the tag): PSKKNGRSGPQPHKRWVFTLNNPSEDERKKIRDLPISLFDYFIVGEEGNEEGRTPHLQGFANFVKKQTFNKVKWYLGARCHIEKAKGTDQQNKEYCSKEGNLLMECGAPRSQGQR
# Description: as §1
# [8] = test system: T8, Rep nickase domain of tomato golden mosaic virus
# T8 sequence (Rep 1-124, printed without the tag): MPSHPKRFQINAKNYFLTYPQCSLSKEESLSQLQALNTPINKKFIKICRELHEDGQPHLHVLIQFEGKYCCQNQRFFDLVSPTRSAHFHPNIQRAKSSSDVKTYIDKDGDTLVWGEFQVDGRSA
# Description: as §1
# [9] = test system: T9, Rep nickase domain of tomato yellow leaf curl virus
# T9 sequence (Rep 1-136, printed without the tag): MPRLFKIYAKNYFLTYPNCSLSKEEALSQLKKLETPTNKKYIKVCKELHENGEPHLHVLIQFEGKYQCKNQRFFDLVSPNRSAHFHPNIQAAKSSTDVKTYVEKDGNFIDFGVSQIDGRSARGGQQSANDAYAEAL
# Description: as §1
# [10] = test system: T10, Rep nickase domain of wheat dwarf virus
# T10 sequence (Rep 1-137, printed without the tag): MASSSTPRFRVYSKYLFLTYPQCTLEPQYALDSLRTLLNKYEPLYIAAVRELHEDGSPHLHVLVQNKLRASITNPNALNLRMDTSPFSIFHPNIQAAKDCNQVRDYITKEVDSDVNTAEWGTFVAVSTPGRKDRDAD
# Description: as §1
sequence,measurement,setting,value
GGCCGCT,uncleaved DNA left (log2),[1],0.156
same,uncleaved DNA left (log2),[2],0.0835
same,uncleaved DNA left (log2),[3],0.362
same,uncleaved DNA left (log2),[4],0.566
same,uncleaved DNA left (log2),[5],0.0501
same,uncleaved DNA left (log2),[6],0.79
same,uncleaved DNA left (log2),[7],0.15
same,uncleaved DNA left (log2),[8],0.0957
same,uncleaved DNA left (log2),[9],0.116
same,uncleaved DNA left (log2),[10],0.188
ACACCTT,uncleaved DNA left (log2),[1],0.112
same,uncleaved DNA left (log2),[2],0.0246
same,uncleaved DNA left (log2),[3],-0.121
same,uncleaved DNA left (log2),[4],-2.15
same,uncleaved DNA left (log2),[5],-0.0896
same,uncleaved DNA left (log2),[6],-0.388
same,uncleaved DNA left (log2),[7],-0.167
same,uncleaved DNA left (log2),[8],0.0751
same,uncleaved DNA left (log2),[9],-0.0506
same,uncleaved DNA left (log2),[10],-0.0495
AGATGAA,uncleaved DNA left (log2),[1],-0.0153
same,uncleaved DNA left (log2),[2],-0.0491
same,uncleaved DNA left (log2),[3],0.278
same,uncleaved DNA left (log2),[4],0.734
same,uncleaved DNA left (log2),[5],0.00498
same,uncleaved DNA left (log2),[6],0.568
same,uncleaved DNA left (log2),[7],-0.104
same,uncleaved DNA left (log2),[8],0.0533
same,uncleaved DNA left (log2),[9],-0.075
same,uncleaved DNA left (log2),[10],0.031
CTTAAGG,uncleaved DNA left (log2),[1],0.0658
same,uncleaved DNA left (log2),[2],0.116
same,uncleaved DNA left (log2),[3],0.398
same,uncleaved DNA left (log2),[4],1.39
same,uncleaved DNA left (log2),[5],0.102
same,uncleaved DNA left (log2),[6],1.35
same,uncleaved DNA left (log2),[7],0.217
same,uncleaved DNA left (log2),[8],0.0703
same,uncleaved DNA left (log2),[9],0.0158
same,uncleaved DNA left (log2),[10],0.0762
CAACGGT,uncleaved DNA left (log2),[1],0.0313
same,uncleaved DNA left (log2),[2],-0.0281
same,uncleaved DNA left (log2),[3],-0.00274
same,uncleaved DNA left (log2),[4],-0.342
same,uncleaved DNA left (log2),[5],-0.00696
same,uncleaved DNA left (log2),[6],0.605
same,uncleaved DNA left (log2),[7],-0.0249
same,uncleaved DNA left (log2),[8],-0.0385
same,uncleaved DNA left (log2),[9],-0.145
same,uncleaved DNA left (log2),[10],-0.21
ATCTGCT,uncleaved DNA left (log2),[1],-0.333
same,uncleaved DNA left (log2),[2],-0.134
same,uncleaved DNA left (log2),[3],-0.501
same,uncleaved DNA left (log2),[4],-0.745
same,uncleaved DNA left (log2),[5],0.0232
same,uncleaved DNA left (log2),[6],-0.818
same,uncleaved DNA left (log2),[7],-2.47
same,uncleaved DNA left (log2),[8],-0.0766
same,uncleaved DNA left (log2),[9],0.0412
same,uncleaved DNA left (log2),[10],-0.162
TGGCAGC,uncleaved DNA left (log2),[1],-0.0771
same,uncleaved DNA left (log2),[2],-0.0801
same,uncleaved DNA left (log2),[3],0.478
same,uncleaved DNA left (log2),[4],1.11
same,uncleaved DNA left (log2),[5],-0.052
same,uncleaved DNA left (log2),[6],0.951
same,uncleaved DNA left (log2),[7],0.116
same,uncleaved DNA left (log2),[8],-0.00255
same,uncleaved DNA left (log2),[9],-0.0157
same,uncleaved DNA left (log2),[10],0.0287
